The labels stand for the following.
T1: RBFOX1 RRM (Homo sapiens, UniProt Q9NWB1 109-208)
T1 sequence: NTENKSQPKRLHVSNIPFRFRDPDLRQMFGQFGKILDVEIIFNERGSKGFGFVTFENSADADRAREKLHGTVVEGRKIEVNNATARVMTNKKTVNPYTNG

B1: UUGAUAC (DNA:RNA)
RNA: GGGAGACCGGAAUUCAGAUUGUCCUUGAUACUUAAAUCCCGUCGUAGCCACCA
DNA 1: CAATCTGAATTCCGGTCTCCC
DNA 2: TGGTGGCTACGACGGGATT
B2: ACUUGGG (DNA:RNA)
RNA: GGGAGACCGGAAUUCAGAUUGUCCACUUGGGUUAAAUCCCGUCGUAGCCACCA
DNA 1: CAATCTGAATTCCGGTCTCCC
DNA 2: TGGTGGCTACGACGGGATT
B3: ACCUCGA (DNA:RNA)
RNA: B2 RNA with U27C, G29C, G31A
DNA 1: CAATCTGAATTCCGGTCTCCC
DNA 2: TGGTGGCTACGACGGGATT
B4: CGGGCAU (DNA:RNA)
RNA: B1 RNA with U25C, U26G, A28G, U29C, C31U
DNA 1: CAATCTGAATTCCGGTCTCCC
DNA 2: TGGTGGCTACGACGGGATT
B5: ACUACAA (DNA:RNA)
RNA: B2 RNA with U28A, G29C, G30A, G31A
DNA 1: CAATCTGAATTCCGGTCTCCC
DNA 2: TGGTGGCTACGACGGGATT
B6: GUUUAUU (DNA:RNA)
RNA: B2 RNA with A25G, C26U, G29A, G30U, G31U
DNA 1: CAATCTGAATTCCGGTCTCCC
DNA 2: TGGTGGCTACGACGGGATT
B7: UCAGCCA (DNA:RNA)
RNA: B2 RNA with A25U, U27A, U28G, G29C, G30C, G31A
DNA 1: CAATCTGAATTCCGGTCTCCC
DNA 2: TGGTGGCTACGACGGGATT
B8: AGUCUUC (DNA:RNA)
RNA: B2 RNA with C26G, U28C, G29U, G30U, G31C
DNA 1: CAATCTGAATTCCGGTCTCCC
DNA 2: TGGTGGCTACGACGGGATT
B9: UGAUGCA (DNA:RNA)
RNA: B2 RNA with A25U, C26G, U27A, G30C, G31A
DNA 1: CAATCTGAATTCCGGTCTCCC
DNA 2: TGGTGGCTACGACGGGATT
B10: CCGGAGU (DNA:RNA)
RNA: B2 RNA with A25C, U27G, U28G, G29A, G31U
DNA 1: CAATCTGAATTCCGGTCTCCC
DNA 2: TGGTGGCTACGACGGGATT
B11: GAAAGGA (DNA:RNA)
RNA: B2 RNA with A25G, C26A, U27A, U28A, G31A
DNA 1: CAATCTGAATTCCGGTCTCCC
DNA 2: TGGTGGCTACGACGGGATT
B12: CUAUCCC (DNA:RNA)
RNA: B1 RNA with U25C, G27A, A28U, U29C, A30C
DNA 1: CAATCTGAATTCCGGTCTCCC
DNA 2: TGGTGGCTACGACGGGATT
B13: CUUAAGA (DNA:RNA)
RNA: B2 RNA with A25C, C26U, U28A, G29A, G31A
DNA 1: CAATCTGAATTCCGGTCTCCC
DNA 2: TGGTGGCTACGACGGGATT
B14: ACUAUCA (DNA:RNA)
RNA: B2 RNA with U28A, G29U, G30C, G31A
DNA 1: CAATCTGAATTCCGGTCTCCC
DNA 2: TGGTGGCTACGACGGGATT
B15: AUCGGUU (DNA:RNA)
RNA: B2 RNA with C26U, U27C, U28G, G30U, G31U
DNA 1: CAATCTGAATTCCGGTCTCCC
DNA 2: TGGTGGCTACGACGGGATT
B16: CUACUGC (DNA:RNA)
RNA: B1 RNA with U25C, G27A, A28C, A30G
DNA 1: CAATCTGAATTCCGGTCTCCC
DNA 2: TGGTGGCTACGACGGGATT
B17: CCUUGUG (DNA:RNA)
RNA: B2 RNA with A25C, G30U
DNA 1: CAATCTGAATTCCGGTCTCCC
DNA 2: TGGTGGCTACGACGGGATT
B18: CCGAGAA (DNA:RNA)
RNA: B1 RNA with U25C, U26C, U29G, C31A
DNA 1: CAATCTGAATTCCGGTCTCCC
DNA 2: TGGTGGCTACGACGGGATT
B19: UACACUU (DNA:RNA)
RNA: B1 RNA with U26A, G27C, U29C, A30U, C31U
DNA 1: CAATCTGAATTCCGGTCTCCC
DNA 2: TGGTGGCTACGACGGGATT
B20: CAAGAGC (DNA:RNA)
RNA: B2 RNA with A25C, C26A, U27A, U28G, G29A, G31C
DNA 1: CAATCTGAATTCCGGTCTCCC
DNA 2: TGGTGGCTACGACGGGATT

Where a chain is given by its changes, count along the chain named. This is one part of the list.

In the assay the target is T1, RBFOX1 RRM. The assay can be described thus: EMSA; HiTS-Eq, 1 nM pool, 10 min; buffer printed only for the single-RNA assays: 10 mM Tris pH 7.5, 150 mM NaCl, 3.4 mM EDTA, 0.001% NP-40, 30 C. The settings on record: tags: His6 N-terminal (pET28a); label: 5' 32P. The method, boiled down:
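Relative association constants, normalised to the cognate motif, were derived by comparing read counts of each RNA species with those of the control reaction. The RNA sequenced was the free fraction, separated by 8% native PAGE after a 10 min equilibration in 50 µL of 1 nM 5′-radiolabelled RNA (7 randomized nucleotides) with increasing concentrations of purified wild-type or mutant RbFox RRM.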
Background: In EMSA bound probe runs differently from free probe, usually more slowly.
In the case of B1, the binding signal is 0.0123 KA relative to UGCAUGU.

Turning to B2, the binding signal was 0.00696 KA relative to UGCAUGU.

For the molecule B3, the binding signal is 0.00389 KA relative to UGCAUGU.

Take B4: the binding signal is 0.0317 KA relative to UGCAUGU.

B5: the binding signal is 0.00169 KA relative to UGCAUGU.

B6: the binding signal was 0.00899 KA relative to UGCAUGU.

With B7, the binding signal was 0.00404 KA relative to UGCAUGU.

Turning to B8, the binding signal was 0.0128 KA relative to UGCAUGU.

Regarding B9, the binding signal was 0.0332 KA relative to UGCAUGU.

As for B10, the binding signal is 0.00728 KA relative to UGCAUGU.

B11: the binding signal was 0.00178 KA relative to UGCAUGU.

As for B12, the binding signal is 0.000849 KA relative to UGCAUGU.

On to B13, for which the binding signal is 0.0064 KA relative to UGCAUGU.

Take B14: the binding signal was 0.00217 KA relative to UGCAUGU.

For B15, the binding signal was 0.0121 KA relative to UGCAUGU.

As for B16, the binding signal is 0.0129 KA relative to UGCAUGU.

As for B17, the binding signal was 0.0165 KA relative to UGCAUGU.

For the molecule B18, the binding signal is 0.0108 KA relative to UGCAUGU.

Consider B19, for which the binding signal was 0.00111 KA relative to UGCAUGU.

For B20, the binding signal is 0.00561 KA relative to UGCAUGU.

For the origin of these results see paper PMC9911399, “Two distinct binding modes provide the RNA-binding protein RbFox with extraordinary sequence specificity”.
